Results from article PMC4336329 (PLoS ONE, 2015).
Among all 310,000 compounds or so, about 14,000 (4.5%) showed an effect of 50% or more. The effect is printed as a negative number. Some of the results follow.

The compounds below were run against human ether-à-go-go-related gene (hERG) potassium channel (human, UniProt Q12809) (assay: primary screen, population patch clamp on CHO cells stably expressing hERG).
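Further: peak tail current of the secondary pulse compared with the same well before compound.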

Sequence of human ether-à-go-go-related gene (hERG) potassium channel (Q12809 whole entry, looked up): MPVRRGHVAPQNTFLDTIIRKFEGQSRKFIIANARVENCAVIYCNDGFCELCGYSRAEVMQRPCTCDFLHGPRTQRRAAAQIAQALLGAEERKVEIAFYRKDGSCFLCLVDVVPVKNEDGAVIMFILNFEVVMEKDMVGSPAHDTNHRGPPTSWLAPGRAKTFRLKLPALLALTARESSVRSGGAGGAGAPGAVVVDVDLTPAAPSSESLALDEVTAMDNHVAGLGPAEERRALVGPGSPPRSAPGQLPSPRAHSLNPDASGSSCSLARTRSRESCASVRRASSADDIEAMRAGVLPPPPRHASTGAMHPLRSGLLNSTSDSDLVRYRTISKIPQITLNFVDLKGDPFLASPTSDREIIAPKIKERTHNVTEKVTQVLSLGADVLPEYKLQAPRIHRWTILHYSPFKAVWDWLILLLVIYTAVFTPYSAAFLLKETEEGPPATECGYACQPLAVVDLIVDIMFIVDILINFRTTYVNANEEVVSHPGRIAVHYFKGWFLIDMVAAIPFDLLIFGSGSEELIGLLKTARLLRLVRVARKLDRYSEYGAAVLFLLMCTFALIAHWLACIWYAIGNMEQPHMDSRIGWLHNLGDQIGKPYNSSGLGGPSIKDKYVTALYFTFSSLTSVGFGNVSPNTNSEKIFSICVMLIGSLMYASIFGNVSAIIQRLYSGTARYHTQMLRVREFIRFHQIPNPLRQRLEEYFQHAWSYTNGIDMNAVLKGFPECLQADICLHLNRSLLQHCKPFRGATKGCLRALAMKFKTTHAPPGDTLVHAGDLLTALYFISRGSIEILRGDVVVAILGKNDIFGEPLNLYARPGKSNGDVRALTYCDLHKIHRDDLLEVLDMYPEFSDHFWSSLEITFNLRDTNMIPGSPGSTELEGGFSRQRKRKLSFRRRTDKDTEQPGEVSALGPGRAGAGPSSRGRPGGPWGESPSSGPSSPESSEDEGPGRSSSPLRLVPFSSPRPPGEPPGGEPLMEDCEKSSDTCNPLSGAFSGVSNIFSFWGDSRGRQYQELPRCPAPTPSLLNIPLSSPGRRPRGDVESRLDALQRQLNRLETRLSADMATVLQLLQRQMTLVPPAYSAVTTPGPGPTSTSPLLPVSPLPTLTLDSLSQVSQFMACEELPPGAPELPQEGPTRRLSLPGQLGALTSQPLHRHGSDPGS

SMILES | hERG current change (%, negative = inhibition) at 10uM [%]
O=C(O)c1cc(S(=O)(=O)NC(CO)C(O)c2ccc([N+](=O)[O-])cc2)ccc1Br (stereo not shown) | 7.6
NS(=O)(=O)c1ccc(CCNC(=O)CSCc2ccccc2)cc1 | -11.2
COc1ccc(-c2csc3ncnc(NCCN4CCOCC4)c23)cc1 | -22.6
CC1=Nn2c(nnc2-c2ccccc2F)SC1 | 13.8
CN(C(=O)CSc1nc2ccccc2n1CCc1ccccc1)C1CCS(=O)(=O)C1 (stereo not shown) | -18.9
CC1(C)CCN(Cc2ccccc2)C1CC#N (stereo not shown) | 1.57
CCOC(=O)CNC(=O)Cn1cnc2c(nnn2-c2ccccc2)c1=O | -9.92
N#CC(Cc1ccccc1)(Cc1ccccc1)C(=O)NN | 8.09
COC(=O)C1CCN(CC(=O)NC(=O)NC2CCCCC2)CC1 | 4.61
COc1ccc2c(c1)cc(C(=O)N[C@H](C(=O)N1CCC(C(=O)O)CC1)C(C)C)n2C | 27
CC(C)CCN1CCC(C)(NC(=O)c2ccccc2)C1=O (stereo not shown) | 7.35
O=C(Cn1nc(C(F)(F)F)c2c1CCCC2)Nc1ccc2c(c1)OCO2 | -4.34
COC(=O)Cn1nc(-c2ccccc2)c2cc(Cl)ccc21 | -0.627
CCC(c1nnnn1Cc1ccc(OC)cc1)N1CCN(c2ccc(OC)cc2)CC1.Cl (stereo not shown) | -22.3
O=C(COC(=O)C1(c2ccccc2F)CCCC1)NCc1cccs1 | -6.49
c1ccc2c(c1)CCN(c1nc3cc4c(cc3s1)OCCO4)C2 | 12.4
Cc1cc(OC(C)C(=O)NCc2ccncc2)c2c(C)c(C)c(=O)oc2c1 (stereo not shown) | -37.4
CN(C)c1ccc(CNC(=O)C2CCN(S(=O)(=O)c3ccc4c(c3)CCCC(=O)N4)CC2)cc1 | 1.95
O=C(O)C(=O)O.c1ccc(CN2CCN(CCOCCOc3cccc4ccccc34)CC2)cc1 | -43.3
CCc1nnc(NC(=O)CCN2C(=O)c3ccccc3C2=O)s1 | -9.71
COc1ccc(CCn2nnnc2C(CC(C)C)N2CCN(c3ncccn3)CC2)cc1OC (stereo not shown) | 0.573
CCCOc1ccccc1NC(=O)Nc1ccccc1Cl | 16.6

SMILES | hERG current change (%, negative = inhibition) at 10uM [%]
CCN(CC)CCOC(=O)c1c(C)n(C)c2ccc(OC)cc12.Cl | -17.9
O=C(Nc1cccc(NC(=O)c2ccc(-c3cccc(Br)c3)o2)c1)c1ccco1 | 4.15
COc1ccccc1CNS(=O)(=O)c1ccc(S(=O)(=O)NC2CC2)cc1 | 15.3
O=C(C1CCCO1)N1N=C(c2ccc(Br)cc2)CC1c1ccco1 (stereo not shown) | -14.2
CC(=O)Nc1cccc(C(=O)OCC(=O)Nc2nnc(-c3ccccc3)o2)c1 | -1.06
CC(=O)N/C(=C\c1cccs1)C(=O)O | 31.6
O=C(Nc1nnc(-c2ccco2)o1)c1cccc(Cl)c1 | 24
COc1cc(CNc2cc(C)ccc2C)cc(OC)c1OC | -4.46
COc1ccccc1N1C(=O)CC(Sc2ccccc2N)C1=O (stereo not shown) | 0.966
COc1ccc(NC(=O)Nc2c(C)n(C)n(-c3ccccc3)c2=O)c(OC)c1 | 23.1
COc1ccc(/C=C/C(=O)C23CC4CC(CC(C4)C2)C3)cc1CN1CCOCC1 | -34.7
C[C@H](NC(=O)c1nc[nH]c1C(=O)NC1CCN(C(=O)OC(C)(C)C)CC1)C(=O)OCc1ccccc1 | -34.4
O=C(c1ccc(Cl)cc1Cl)C1(n2cncn2)Oc2ccccc2C1O (stereo not shown) | -30.2
O=C(NCC1CCCN1S(=O)(=O)c1cccs1)C(=O)Nc1ccccc1 (stereo not shown) | -5.75
COc1ccc(CC(=O)Nc2cc(Cl)ccc2N2CCCC2)cc1 | 15.7
O=C(Nn1cnnc1)c1ccccc1F | 17
Cc1nc(C)c(C(=O)Nc2ccccc2)s1 | -3.01
COCC(C)n1c(SCC(=O)NNC(=O)c2ccc(F)cc2)nc2ccccc2c1=O (stereo not shown) | -31.1
O=C(c1cccc(S(=O)(=O)N2CCN(c3ccccc3)CC2)c1)N1CCCC(C(F)(F)F)C1 (stereo not shown) | -17.5
C=CCOC(=O)C1=C(C)NC(SCC(=O)Nc2nccs2)=C(C#N)C1c1cccs1 (stereo not shown) | 6.39
Cc1[nH]n(-c2ccccc2)c(=O)c1C=Nc1ccc(S(=O)(=O)NC(N)=O)cc1 | -11.3
CCCN1CCN(CCCNC(=O)C2CCCN(c3nc4ccc(OCC)cc4s3)C2)CC1 (stereo not shown) | -56.7

SMILES | hERG current change (%, negative = inhibition) at 10uM [%]
CC(C)(C)OC(=O)N1CCC[C@H]1c1nnc(SCC(=O)Nc2ccc(Br)cc2)o1 | -36.9
CO/N=C/C(C#N)=C/c1cc(C(=O)c2ccc(F)cc2)cn1C | 10.5
Brc1ccccc1-c1nnc(-c2cccnc2)o1 | -9.12
CC(=O)c1cccc(NC(=S)NNC(=O)c2ccco2)c1 | 24.9
O=C1N(C2CCCC2)C[C@@H]2C[C@@H](c3cccn3-c3nccs3)N3CCC[C@@]123 | -66.6
Cc1ccc(S(=O)(=O)NC(=NC(C)C(=O)O)c2ccccc2)cc1 (stereo not shown) | 8.71
CCOc1ccc(S(=O)(=O)Nc2ccc3c(c2)OCO3)cc1 | -14.9
Cc1ccc(C(=O)NC(=S)Nc2ccc(N3CCOCC3)cc2)cc1C | -7.53
CCCn1c(SCC(=O)N2CCN(C(=O)c3ccco3)CC2)nc2ccccc2c1=O | -82.8
COc1ccc(N(C)C(=O)CCS(=O)(=O)c2cccc3nonc23)cc1 | -6.8
COC(=O)CNC(=O)CSc1nnc(C)c(=O)[nH]1 | 6.35
Cn1c(CSc2nc3ccccc3s2)nnc1SCC(=O)NCCCN1CCOCC1 | 8.89
O=C(Nc1ccccc1)Nc1ccccc1-n1ccnc1 | -18.2
CC(C)c1ccc(NC(=O)c2cccc(NC3=NC4CS(=O)(=O)CC4S3)c2)cc1 (stereo not shown) | -11.1
c1ccc2c(c1)Nc1ccncc1S2 | -9
CC(NC(=O)CN1C(=O)COc2ccccc21)c1ccccc1 (stereo not shown) | -4.45
N#Cc1cccc(CSc2nnc(CCCO)n2-c2ccccc2)c1 | 1.43
CCOc1ccc(CCNC(=O)Cn2cccc2C(=O)c2ccccc2C)cc1OCC | -19
Cl.O=C(c1ccc(Cl)cc1)C(CN1CCCCC1)c1ccccc1 (stereo not shown) | -45.9
CN(C)c1cccc(N(C)C)c1CNC(=O)C(C)(C)C | -1.08
CC(C)/C(=N\NC(=O)Nc1ccccc1)c1ccccc1 | 3.63
O=C1[C@@H]2Cc3c([nH]c4ccccc34)CN2C(=O)CN1CCO | 19

SMILES | hERG current change (%, negative = inhibition) at 10uM [%]
CC(=O)N1c2ccc(S(=O)(=O)N3CCC(C(=O)N4CC(C)CC(C)C4)CC3)cc2CC1C (stereo not shown) | 18.4
C=CCN(CC=C)S(=O)(=O)c1ccc(C(=O)Nc2nc3c(s2)CCc2ccccc2-3)cc1 | 2.35
COC(=O)c1cc(-c2ccc(NC(C)=O)cc2)nc2ccccc12 | 6.01
CN(C)c1nc(Nc2ccc(F)cc2)nc(Oc2ccc(F)cc2)n1 | 7.97
Cc1ccc(NC(=O)Nc2cccnc2)cc1NC(=O)Nc1cccnc1 | 11.4
Cc1ccc(CCN2CC(C(=O)NCCN(C)C)CC2=O)cc1 (stereo not shown) | 16.5
COc1cc(F)cc(-c2ccc3c(c2)c(-c2cccs2)c(-c2cc(OC)cc(OC)c2)n3C)c1 | 8.79
COc1ccccc1CC(=O)Nc1ccc(-c2nnc(-c3ccco3)o2)cc1 | 1.45
O=C(CC1N=C2c3ccccc3N=C(SCc3ccc(F)cc3)N2C1=O)NCc1ccco1 (stereo not shown) | -73.9
Cc1ccc(NC(=O)CNc2ccccc2CN(C)C2CCCCC2)cc1 | -59.1
Cc1cc(F)ccc1S(=O)(=O)Nc1ncnc2sc3c(c12)CCC3 | 13.1
CC(=O)NCCn1c(SCC(=O)NCc2ccco2)nc2ccccc2c1=O | -23.9
CCC1CCCCN1C1Sc2ccc(C(=O)OC)cc2NC1=O (stereo not shown) | -13.1
O=C(CCSc1ccc(Cl)cc1)NC1CCCC1 | 7.05
O=C(c1ccccc1)N(Cc1ccco1)C1CCS(=O)(=O)C1 (stereo not shown) | 15.8
COc1ccc(-c2cc(C(=O)NCc3ccc(Cl)cc3)no2)cc1OC | 6.78
O=C(NCCc1c[nH]c2ccccc12)C(F)(F)C(F)F | -0.143
COc1ccc(/C=C(\NC(=O)c2ccc([N+](=O)[O-])cc2)C(=O)N2CCOCC2)cc1 | -75
O=C(Nc1ccc(S(=O)(=O)NCC2CCCO2)cc1)c1ccc(F)cc1 (stereo not shown) | 17.5
O=c1[nH]nc(-c2ccccc2)cc1-c1ccccc1 | -17.5
CCOc1ccccc1C1c2[nH]c3ccccc3c2C[C@H]2C(=O)N(C3CC3)CC(=O)N12 (stereo partly shown) | -27.8
COC(=O)CCC(C)N1CCC(Oc2ccc(C(=O)N3CCCC3)cc2)CC1 (stereo not shown) | -11
